A collection of fitness landscapes (doi:10.1016/j.celrep.2020.107928)
Whole data set: some 81,000 sequences, median “one-hybrid fitness for binding parS DNA” near -0.17, cut for the highest 2% near 0.51. The list shows a part of the results.

B1: Caulobacter ParB omega fusion; a variant is named by its letters at X, in order, B8GW30 (parent)
chain: MESVVVGEPGMSEGRRGLGRGLSALLGEVDAAPAQAPGEQLGGSREAPIEILQRNPDQPRRTFREEDLEDLSNSIREKGVLQPILVRPSPDTAGEYQIVAGERAWRAAQRAGLKTVPIMVRELDDLAVLEIGIIENVQRADLNVLEEALSYKVLMEKFERTQENIAQTIGKSXSHVANXMRLLXLPDEVQSYLVSGELTAXHARAIAAAADPVALAKQIIEGGLSVRETEALARKAPNLSAGKSKGGRPPRVKDTDTQALESDLSSVLGLDVSIDHRGSTGTLTITYATLEQLDDLCNRLTRGI

Variants of: B1
Assay: one-hybrid fitness for binding parS DNA (scaled: cognate 1, non-cognate 0); higher = stronger binding
Details: with parS DNA site
In short: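 The reporter was HIS3, with the binding site 19 bp from the promoter, in E. coli USO used for bacterial one-hybrid selection of Caulobacter ParB libraries with four specificity codons randomised. Growth was on M9 lacking histidine, with 0.1 mM IPTG and 5 mM 3-AT, for 48 hours at 37°C. Illumina sequencing covered plasmids before and after selection; three replicate libraries were pooled and variants with under 10 reads dropped. A fitness score is the log change in variant-to-wild-type read ratio, rescaled to the cognate and non-cognate references.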

| Variant | one-hybrid fitness for binding parS DNA |
| --- | --- |
| QQCW | ≤ 0.2 |
| TFLS | ≤ 0.2 |
| NPED | ≤ 0.2 |
| PALK | ≤ 0.2 |
| TWCR | ≤ 0.2 |
| LTKG | ≤ 0.2 |
| AKRY | ≤ 0.2 |
| LSTN | ≤ 0.2 |
| RHDK | ≤ 0.2 |
| AGYR | ≤ 0.2 |
| TRQW | ≤ 0.2 |
| HVHG | ≤ 0.2 |
| IRCG | ≤ 0.2 |
| FYGR | ≤ 0.2 |
| TWSV | ≤ 0.2 |
| HNYP | ≤ 0.2 |
| LRTN | ≤ 0.2 |
| SYST | ≤ 0.2 |
| LSGC | ≤ 0.2 |
| GYLR | ≤ 0.2 |
| FAIA | ≤ 0.2 |
| DMNR | ≤ 0.2 |
| QLPF | ≤ 0.2 |
| QCKW | ≤ 0.2 |
| EWPV | ≤ 0.2 |
| GYTC | ≤ 0.2 |

| Variant | one-hybrid fitness for binding parS DNA |
| --- | --- |
| SLKC | ≤ 0.2 |
| RSFN | 0.383 |
| SQAL | ≤ 0.2 |
| IIPS | ≤ 0.2 |
| QMNS | ≤ 0.2 |
| YKYG | ≤ 0.2 |
| MGRT | ≤ 0.2 |
| SYIF | ≤ 0.2 |
| LTYS | ≤ 0.2 |
| LVIG | ≤ 0.2 |
| ENIM | ≤ 0.2 |
| LVIS | ≤ 0.2 |
| VHHF | ≤ 0.2 |
| CMPQ | ≤ 0.2 |
| GKHR | ≤ 0.2 |
| VTTE | ≤ 0.2 |
| QLEV | ≤ 0.2 |
| THFS | ≤ 0.2 |
| LKQI | ≤ 0.2 |
| HHAV | ≤ 0.2 |
| IFMS | ≤ 0.2 |
| QNTG | ≤ 0.2 |
| RWDY | 0.264 |
| RMEQ | ≤ 0.2 |
| DHRG | ≤ 0.2 |
| LRYE | ≤ 0.2 |

| Variant | one-hybrid fitness for binding parS DNA |
| --- | --- |
| HQAK | ≤ 0.2 |
| CWHG | 0.244 |
| AISF | ≤ 0.2 |
| QNPP | ≤ 0.2 |
| PWPK | ≤ 0.2 |
| RDVD | ≤ 0.2 |
| RGNE | ≤ 0.2 |
| QMKE | ≤ 0.2 |
| QPEL | ≤ 0.2 |
| RPAV | ≤ 0.2 |
| SNMM | ≤ 0.2 |
| VVQS | ≤ 0.2 |
| QHMA | ≤ 0.2 |
| RYTF | ≤ 0.2 |
| ALEV | ≤ 0.2 |
| SSAC | ≤ 0.2 |
| IFVR | ≤ 0.2 |
| RPVA | ≤ 0.2 |
| MEHI | ≤ 0.2 |
| AISM | ≤ 0.2 |
| FFGT | ≤ 0.2 |
| TQWD | ≤ 0.2 |
| DSEW | ≤ 0.2 |
| YRVN | ≤ 0.2 |
| GYHM | ≤ 0.2 |
| ESMG | ≤ 0.2 |

| Variant | one-hybrid fitness for binding parS DNA |
| --- | --- |
| DNVG | ≤ 0.2 |
| REPK | ≤ 0.2 |
| FLTT | ≤ 0.2 |
| LTTW | ≤ 0.2 |
| KAQS | ≤ 0.2 |
| QTSA | ≤ 0.2 |
| MCMS | 0.201 |
| HVQA | ≤ 0.2 |
| QKMV | ≤ 0.2 |
| QKDG | ≤ 0.2 |
| PAAA | ≤ 0.2 |
| QVKL | ≤ 0.2 |
| TIFW | ≤ 0.2 |
| RAQQ | ≤ 0.2 |
| VMNP | ≤ 0.2 |
| RMTC | 0.985 |
| QDHE | ≤ 0.2 |
| TPAS | ≤ 0.2 |
| AVPY | ≤ 0.2 |
| EIHH | ≤ 0.2 |
| HLLW | ≤ 0.2 |
| SCGS | ≤ 0.2 |
| FSLV | ≤ 0.2 |
| MVRE | ≤ 0.2 |
| MLHM | ≤ 0.2 |
| LNAL | ≤ 0.2 |

| Variant | one-hybrid fitness for binding parS DNA |
| --- | --- |
| MHQY | ≤ 0.2 |
| AFID | ≤ 0.2 |
| FRRY | ≤ 0.2 |
| PLAM | ≤ 0.2 |
| HHFT | ≤ 0.2 |
| VGFT | ≤ 0.2 |
| QPLE | ≤ 0.2 |
| AHCH | ≤ 0.2 |
| RHVW | ≤ 0.2 |
| DSTD | ≤ 0.2 |
| IAGY | ≤ 0.2 |
| KIGF | ≤ 0.2 |
| LQSM | ≤ 0.2 |
| RETA | ≤ 0.2 |
| LQPV | ≤ 0.2 |
| RNYH | ≤ 0.2 |
| RQDC | 0.863 |
| ANPS | ≤ 0.2 |
| QHLD | ≤ 0.2 |
| RKAA | 0.62 |
| AIAT | ≤ 0.2 |
| KHEV | ≤ 0.2 |
| DRKC | ≤ 0.2 |
| NLKH | ≤ 0.2 |
| IVSW | ≤ 0.2 |
| PHMG | ≤ 0.2 |

| Variant | one-hybrid fitness for binding parS DNA |
| --- | --- |
| RLIA | 0.592 |
| PSDM | ≤ 0.2 |
| VRMG | ≤ 0.2 |
| PYGH | ≤ 0.2 |
| RSKP | ≤ 0.2 |
| CPTP | ≤ 0.2 |
| WCNV | ≤ 0.2 |
| DVTF | ≤ 0.2 |
| FLKD | ≤ 0.2 |
| INHF | 0.369 |
| RIAA | 0.62 |
| QKIS | ≤ 0.2 |
| QIGD | ≤ 0.2 |
| QTSW | ≤ 0.2 |
| AARW | ≤ 0.2 |
| QYVI | ≤ 0.2 |
| LYPQ | ≤ 0.2 |
| YGFC | ≤ 0.2 |
| RTQA | 0.627 |
| RSIM | ≤ 0.2 |
| INTR | ≤ 0.2 |
| FRTR | ≤ 0.2 |
| RMCK | ≤ 0.2 |
